# Experimental data as given in the supplement of paper PMC4166925.
# ± gives the standard deviation of the averaged measurements. Whole data set: some 33,000 sequences, median “E-score (dimensionless, -0.5 to 0.5)” near -0.046, cut for the highest 2% near 0.36. Some of the results follow.
# Test system: T1, SpTbr T-box DNA-binding domain (GST fusion)
# T1 sequence: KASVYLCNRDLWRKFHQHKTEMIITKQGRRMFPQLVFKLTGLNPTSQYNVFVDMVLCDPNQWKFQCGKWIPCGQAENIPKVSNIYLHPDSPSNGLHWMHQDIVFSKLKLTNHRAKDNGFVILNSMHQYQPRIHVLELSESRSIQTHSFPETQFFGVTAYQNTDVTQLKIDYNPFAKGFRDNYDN
# Assay: PBM E-score of 8-mer (E-score (dimensionless, -0.5 to 0.5)); Tbr is Tbrain of the sea star Patiria miniata (Pm) or the sea urchin Strongylocentrotus purpuratus (Sp); higher = stronger binding preference; most listed sequences are background and not binding sites
# Conditions: the construct has about 5 more residues each side
# Outline: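 Primer extension turned Universal Agilent oligonucleotide arrays double-stranded. They were incubated with 200 nM protein in PBS (pH 7.5); the protein was a GST-fused Tbr T-box DNA-binding domain expressed in BL21 E. coli at 20 °C and purified on glutathione. Every ungapped 8-mer was scored from the scanned, quantified probe intensities, and the Universal PBM Analysis Suite gave each an enrichment E-score averaged over duplicate arrays.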
row,Sequence,PBM E-score of 8-mer
1,CGGCAAAA,-0.0381 ± 0.004
2,CGGTCGTA,-0.141 ± 0.13
3,GCAAAAGC,-0.03154 ± 0.00023
4,GGGGTCCA,-0.249 ± 0.045
5,ACGAGGCA,-0.168 ± 0.038
6,CAAGGTAG,0.0244 ± 0.015
7,AAGCAATT,-0.202 ± 0.049
8,AGATGTGA,0.361 ± 0.025
9,TATGAAGA,-0.137 ± 0.033
10,GCATTTTA,-0.0869 ± 0.03
11,CGTGTGAG,0.4011 ± 0.0033
12,CATCGACC,0.0447 ± 0.036
13,GAATGATA,-0.0927 ± 0.06
14,ACGGCACT,-0.144 ± 0.06
15,AAAACTCA,-0.1 ± 0.013
16,CCGTCCTA,-0.308 ± 0.019
17,ACAGCTAT,0.157 ± 0.055
18,CAGTGACG,0.0986 ± 0.12
19,GCTGTTAA,0.162 ± 0.0053
20,ACGCGTTG,0.206 ± 0.032
21,CTTACGCC,0.177 ± 0.0022
22,ATCGGGTA,-0.204 ± 0.06
23,TACATCGA,-0.0975 ± 0.032
24,CCAGTTCG,-0.156 ± 0.03
25,AGGAATCC,-0.149 ± 0.064

row,Sequence,PBM E-score of 8-mer
1,GTACCAAC,-0.0291 ± 0.021
2,ATCGAAAC,-0.119 ± 0.06
3,GCCTAAAA,-0.0908 ± 0.017
4,CCTGCGCA,0.111 ± 0.048
5,CAGGCCCA,-0.331 ± 0.058
6,ACGCTGAC,0.0661 ± 0.013
7,TACGCATA,-0.156 ± 0.054
8,CTTGTCGC,0.315 ± 0.0039
9,TATCGAAA,0.026 ± 0.078
10,ACTGAGAT,-0.117 ± 0.046
11,AACTAAAG,-0.0231 ± 0.0062
12,AGGGAACA,-0.217 ± 0.0073
13,AAATATGG,-0.22 ± 0.077
14,CTTGGGCC,-0.1567 ± 0.001
15,ATCAAGGG,-0.0257 ± 0.016
16,CAGGATTA,-0.198 ± 0.045
17,GTATCAAC,0.0342 ± 0.029
18,CGAGCACC,-0.0427 ± 0.039
19,ACGACGAT,0.0587 ± 0.018
20,CAGAGATG,-0.126 ± 0.018
21,CATCTTCA,-0.0355 ± 0.006
22,CCTGACTC,-0.148 ± 0.0063
23,AGACCTTC,-0.26 ± 0.016
24,GCCCATCA,-0.222 ± 0.021
25,AACTGAAA,0.0396 ± 0.052

row,Sequence,PBM E-score of 8-mer
1,CCCAAGAC,-0.118 ± 0.058
2,CTCTCGCA,0.286 ± 0.033
3,GCGCCCGC,0.037 ± 0.07
4,GCGATCCC,0.179 ± 0.034
5,TCAATTGA,-0.0646 ± 0.015
6,CCAGCGCG,0.0431 ± 0.073
7,CATCGGTC,-0.0822 ± 0.071
8,GCAAGAAC,-0.07 ± 0.062
9,CAGAAATA,-0.184 ± 0.015
10,AACGGCAC,0.125 ± 0.012
11,CTCCGAAG,0.05362 ± 0.00038
12,GAGCTCGA,-0.193 ± 0.049
13,ATGCCCTC,-0.0953 ± 0.058
14,CTACAGAA,0.0406 ± 0.032
15,CCTTTGTC,0.0853 ± 0.038
16,ATCATCGC,0.102 ± 0.029
17,CCCTTGTA,-0.095 ± 0.058
18,TAGGCACA,0.16 ± 0.04
19,GTGATTTA,0.156 ± 0.047
20,TCCGGGAA,-0.247 ± 0.053
21,CAGAGATC,-0.204 ± 0.022
22,AATTTTTG,-0.177 ± 0.081
23,AATCGTGG,-0.0511 ± 0.015
24,CCCTCACG,0.153 ± 0.063
25,GCATGCCC,-0.197 ± 0.0077

row,Sequence,PBM E-score of 8-mer
1,GGGTTGAC,0.0787 ± 0.0039
2,AAAAGGAG,0.0274 ± 0.064
3,AGACGACG,-0.0597 ± 0.021
4,ATCCAGTA,0.0699 ± 0.044
5,AAGTCAAA,-0.0558 ± 0.0054
6,AAGCACGG,-0.189 ± 0.076
7,TGAGGACA,0.153 ± 0.0036
8,GCTCGCAC,0.4252 ± 0.0014
9,CGGCCGGA,-0.209 ± 0.031
10,TCTAACCA,-0.0741 ± 0.054
11,CCTACAGC,-0.252 ± 0.035
12,AAACATTA,-0.209 ± 0.02
13,CCCACAGG,0.158 ± 0.05
14,CCGCTTAG,-0.178 ± 0.067
15,AGCGCGGA,0.106 ± 0.044
16,CTTTGCCC,-0.138 ± 0.021
17,ACGCACTA,-0.0875 ± 0.03
18,CCCCTGAA,-0.127 ± 0.03
19,ATGTATGG,-0.196 ± 0.14
20,AGACCCCC,-0.302 ± 0.007
21,ATCTATTA,-0.115 ± 0.088
22,CATCCAAG,0.00205 ± 0.047
23,GCTAGTTA,0.0926 ± 0.023
24,CCTTCAAG,-0.246 ± 0.043
25,AGCACGAT,0.131 ± 0.03

row,Sequence,PBM E-score of 8-mer
1,AAGGGTAG,-0.0117 ± 0.11
2,GCAGAATA,-0.11507 ± 1.4e-05
3,CAACTCAC,0.158 ± 0.0036
4,ACGAGCCC,-0.125 ± 0.04
5,ATTCTATG,-0.165 ± 0.047
6,AGGATATG,-0.272 ± 0.039
7,ATACCGAA,-0.114 ± 0.04
8,TGAACAAA,0.0874 ± 0.0066
9,CAGTCTGG,-0.196 ± 0.021
10,ATACGGGC,-0.196 ± 0.049
11,ATGTTCAA,-0.0744 ± 0.011
12,CGTGGTTA,0.02 ± 0.011
13,CCGCCTTA,-0.152 ± 0.076
14,CAGGTTGG,0.108 ± 0.044
15,ACAATGCA,-0.107 ± 0.0079
16,CCGCACGG,-0.0976 ± 0.031
17,CGAAAGCC,0.0161 ± 0.077
18,AGTACTAA,-0.159 ± 0.016
19,AAGTTCCT,-0.0764 ± 0.025
20,AAGACACG,0.1363 ± 0.00044
21,AGTCCGTC,-0.0169 ± 0.054
22,AGATTCCA,-0.111 ± 0.055
23,ACGATGCA,-0.158 ± 0.0063
24,ATAGTAGA,-0.286 ± 0.061
25,ACTGTTGA,0.107 ± 0.023

row,Sequence,PBM E-score of 8-mer
1,AGTATCTG,-0.212 ± 0.042
2,TATATGAA,-0.182 ± 0.0078
3,GAGGTATA,-0.0744 ± 0.025
4,TATACGAA,-0.269 ± 0.042
5,GGCCAACC,-0.0636 ± 0.015
6,ACACTCCT,0.193 ± 0.021
7,AATGATAA,0.0132 ± 0.1
8,AATTCCAC,0.00147 ± 0.065
9,TCTGGCCA,-0.314 ± 0.058
10,ATGGGGCG,-0.0313 ± 0.038
11,ATCGACGC,0.144 ± 0.042
12,GCGATACC,0.155 ± 0.039
13,AGAACTGA,-0.235 ± 0.023
14,CCTTAGCA,0.238 ± 0.036
15,GGCCAGAC,-0.263 ± 0.02
16,GGATTAAA,0.0114 ± 0.049
17,GCGGTTGA,-0.0421 ± 0.044
18,ATTTAGTA,-0.22 ± 0.022
19,AAACGTAT,-0.0842 ± 0.022
20,ACTGGCAA,0.0373 ± 0.019
21,ACCGTAAA,-0.042 ± 0.015
22,GCGCAAAA,0.156 ± 0.013
23,AAATGTGG,0.114 ± 0.01
24,AAGTTCAT,-0.134 ± 0.013
25,CACGTTGC,0.101 ± 0.025

row,Sequence,PBM E-score of 8-mer
1,AGGGAGTA,-0.128 ± 0.028
2,GGACCCCC,-0.244 ± 0.056
3,GAGCGCGC,0.0155 ± 0.12
4,AGGCGGCC,-0.318 ± 0.024
5,AGGTCGAC,-0.00677 ± 0.036
6,ACTTGCAC,0.222 ± 0.0074
7,AGACCACC,-0.155 ± 0.09
8,CCTTCAGC,-0.114 ± 0.025
9,CCGCGGAG,-0.00051 ± 0.059
10,CAGACATA,0.139 ± 0.028
11,ACTAGCGA,0.0827 ± 0.051
12,AAACGGCA,0.0106 ± 0.047
13,ATACATCA,-0.036 ± 0.032
14,GTCTTCAA,-0.051 ± 0.034
15,GGGCTCAA,-0.179 ± 0.026
16,CAGAGGTA,-0.274 ± 0.037
17,GGATCCAC,-0.00958 ± 0.069
18,GATGCCGC,0.0365 ± 0.034
19,CGAGCTCG,-0.1585 ± 0.00081
20,GGCGTAGA,-0.0321 ± 0.11
21,CTAACACC,0.464 ± 0.005
22,AATTCGCA,0.321 ± 0.023
